# In ChEMBL document CHEMBL4888484, “Replenishing the malaria drug discovery pipeline: Screening and hit evaluation of the MMV Hit Generation Library 1 (HGL1) against asexual blood stage Plasmodium falciparum ,using a nano luciferase reporter read-out” (2022):
# Hit rate of the full screen: of about 150,000 compounds, about 540 (0.36%) showed an effect of 50% or more. This is one part of the list.
# Test system: Plasmodium falciparum
# Assay: Primary screen in NF54 nanoGlo assay, in single point, at 2uM, 72h; a lower Z score goes with more inhibition
# Format: functional, Erythrocyte
# Settings: timepoint 72 hour
Structure (SMILES),% Inhibition,Z score
CONC(=O)C(=O)Nc1c(F)cccc1Br,-39%,4.57
C[C@H](NC(=O)Nc1ccn(CCCC#N)n1)C1CCOCC1,-8%,0.65
O=C(N[C@H]1CCOC[C@@H]1OCc1ccccc1)c1n[nH]c2c1CCCC2,-14%,2.3
CCCN1C(=O)c2cc(S(=O)(=O)Nc3ccc(F)c(C)c3)ccc2Oc2cccnc21,-4%,0.64
Cc1ccc(NC(=O)Cn2cnc3c(-c4ccc(F)cc4)nsc3c2=O)cc1C,-4%,0.62
CCOc1ccccc1[C@H]1Oc2ccccc2-n2c(-c3ccccc3C)c3c(=O)n(C)c(=O)n(C)c3c21,-4%,0.56
CC(C)(C)C1CNC(=O)C1C(=O)Nc1cccc(O)c1 (stereo unspecified),6%,-1.11
CC[C@@]12CCCN1C(=O)N(Cc1cnc(CC(C)C)s1)C2=O,-3%,0.38
O=C1CN(C(=O)c2ccc(-c3nc4ccccc4s3)s2)CCN1,-25%,2.49
Cc1noc(C)c1[C@@H](C)C(=O)Nc1nc(C(C)C)cs1,-5%,0.38
Cc1cccc(C)c1NC(=O)[C@H](C)NC1=NCCCCC1,-22%,2.57
Clc1cccc(-c2cn(CCN3CCCC3)nn2)c1Cl,-10%,1.95
COc1ccc(N2CCN(C(=O)CN3C(=O)[C@H]4CCCC4=Nc4ccccc43)CC2)cc1,5%,-0.61
Cn1ccnc1CN(CCO)C(=O)Nc1ccc(C2CCCCC2)cc1,-3%,0.43
Cc1csc(CCCCNC(=O)C2CCN(c3oc(C)nc3C#N)CC2)n1,-14%,1.92
CC1=NN(c2ccccc2)C(=O)C12Cc1ccccc1N1CCC(Cc3ccccc3)CC12 (stereo unspecified),8%,-0.98
CC(C)C(=O)N1CCC(NCc2cc3cc(F)ccc3o2)C(C)C1 (stereo unspecified),-18%,1.54
CN(C)CCN(C(=O)CCCN1C(=O)c2ccccc2C1=O)c1cccc(Cl)c1Cl,-9%,1.14
CCc1nc(CN(C)C[C@H](C)C(=O)OC)cs1,-9%,1.42
COCC[C@H]1CN(Cc2nonc2C)CCO1,-10%,1.65
Cc1nn(CCO)c(C)c1CN1CCC(c2cc[nH]n2)CC1,-6%,0.71
CCCC1(CNC(=O)[C@H](C)OC)CCC1,-4%,0.46
C[C@@H](Cn1cccn1)OC(=O)c1ccncc1Cl,-5%,0.73
CNc1nc(C)cc(C(=O)N(C)C(C)(C)COC)n1,-10%,1.44
O[C@@H](CNc1cc(C(F)(F)F)ccn1)CN1CCOCC1,-11%,1.42
O=C(C1=CCCC1)N1CCC(CF)CC1,-2%,0.31
COc1ccccc1N1CCN(C(=O)Cn2c3ccccc3c3nnc(-n4nc(C)cc4C)nc32)CC1,6%,-0.88

Structure (SMILES),% Inhibition,Z score
Cc1nc(CC(=O)Nc2cccc(Cl)c2)sc1C(=O)NCc1ccccc1,-4%,0.5
CNC(=O)[C@H](CC(C)C)NC(=O)c1cc(Cl)c(Cl)n1C,1%,-0.08
CCc1nc(-c2ccccc2)nc(N2CCN(C(=O)[C@H]3CCOC3)CC2)c1Cc1ccc(Cl)cc1,-3%,0.43
COc1cccc(/N=C(\NCc2ccccn2)NC(=O)c2ccc(C(F)(F)F)cc2)c1,-5%,0.88
Cc1nn(C)c(C)c1[C@H]1OCC[C@@H]1CNC(=O)c1ccc2c(c1)CCC=C2,-12%,1.28
Cc1cc(C(=O)N2CCN(c3cccc(C)c3C)CC2)c2c(C)nn(-c3cccc(Cl)c3C)c2n1,-12%,1.21
Cn1c(=O)c2sccc2n(CC(=O)NC[C@H]2CCCO2)c1=O,-11%,2.12
O=C(Cc1ccsc1)Nc1ccc2c(c1)CCC(=O)N2,-10%,1.67
COc1cc(=O)n2c(c1C(=O)NCc1cccc(F)c1)CCNCC2,4%,-0.58
COc1ncc(Br)cc1CNC(=O)N[C@H]1COC[C@H]1n1ccnn1,-1%,0.1
CCc1nnc(NC(=O)NC2CC(C)(C)NC(C)(C)C2)s1,-41%,4.82
CC(=O)c1cccc(NC(=O)Cn2nc3ccc(C(=O)NCc4ccccc4)cn3c2=O)c1,-15%,1.34
Cc1c([C@@H]2CCCN2c2ccnc3ccccc23)cnn1C,-1%,0.17
CC1(C)OC2C(COS(C)(=O)=O)OC(n3cnc4c(O)ncnc43)C2O1 (stereo unspecified),3%,-0.46
COc1cc(C)nc(CN[C@@H](C)c2cccc(-n3cccn3)c2)c1,7%,-1.33
Cc1noc(C)c1CN1C(=O)C(=O)N([C@@H](C)c2ccccc2)C1=O,-1%,0.12
Cc1cn(CCNc2cc([C@H]3CCOC3)nc(C)n2)nn1,-2%,0.25
CN(C(=O)c1ccco1)[C@@H](Cc1ccc(F)cc1F)C1CCN(Cc2cc(F)ccc2F)CC1,-1%,0.17
CCOc1ccc(CN2CCOC[C@@H](CO)C2)cc1Cl,1%,-0.12
Cc1nn(C)cc1-c1nn(-c2ccc(F)cc2)c(-c2cn(C)nc2C)c1C,29%,-3.32
C[C@H]1CCc2nn3ccn(CC(=O)Nc4cccc(F)c4)c(=O)c3c2C1,-7%,0.65
Cc1ccccc1OCC(=O)NC[C@](O)(c1ccoc1)c1ccco1,-8%,1.35
CCOCC(=O)Nc1ccc2c(c1)OC1(CCCCC1)O2,-10%,1.04
COc1cccn2ncc(C(=O)N3C[C@@H](O)CC(F)(F)C3)c12,3%,-0.57
CN(C)c1ccc(C(=O)N2CCOC3CCCCC32)cn1 (stereo unspecified),6%,-0.96
CCc1ccc(C2CCCCN2c2nc(C(C)OC)ns2)o1 (stereo unspecified),-10%,1.5
